# From the supplement of paper PMC10037445
# Where “and” joins values, the source holds several entries; their conditions need not be identical. Equal entries are not always repeated. Whole data set: some 2,900 compounds, median “NF-kB SEAP reporter activity, fold change vs agonist alone” near 0.99, cut for the highest 2% near 2.6. The list shows a part of the results.
# How the values were obtained:
# [1] = system: RAW-Dual; test: NF-kB SEAP reporter activity, fold change vs agonist alone; higher = enhanced NF-kB activity; conditions: library stock concentration (final ~1000-fold dilution): 10 mM, cytotoxicity flag (confluency mask): not cytotoxic
# How it was run: (§1)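 Library stock was pin-tooled at 50 nL into 384-well plates of RAW-Dual macrophages (50,000 cells/well, DMEM), followed 1 h later by a PRR agonist, and the cells were kept at 37 °C, 5% CO2. Supernatant collected after 20 hours was read for IRF by QuantiLuc luminescence and for NF-κB by QuantiBlue absorbance at 620 nm. Reporter activity is fold change over agonist-alone wells, and a well counted as cytotoxic when its IncuCyte confluency was below 70% of agonist controls in both mask sets.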
# [2] = system: RAW-Dual; test: NF-kB SEAP reporter activity, fold change vs agonist alone; cytotoxicity flag (confluency mask): not cytotoxic; higher = enhanced NF-kB activity
# How it was run: as §1
# [3] = agonist: ODN 1826 (TLR9) 0.5 ug/mL
# [4] = agonist: Pam2CSK4 (TLR2/6) 0.1 ug/mL
# [5] = agonist: Pam3CSK4 (TLR2/1) 0.1 ug/mL
structure (smiles),measurement,setting,value
CNC(=O)c1ccccc1Nc1nc(Nc2ccc(N3CCOCC3)cc2OC)ncc1Cl,NF-kB SEAP reporter activity,[1]; agonist: Imiquimod (TLR7) […],0.466
same,NF-kB SEAP reporter activity,[1]; agonist: MPLA (TLR4) […],0.594
CC1=C(C(=O)Nc2cc3cn[nH]c3cc2F)C(c2ccc(C(F)(F)F)cc2)CC(=O)N1 (stereo not drawn) (library stock concentration (final ~1000-fold dilution): 10 mM),NF-kB SEAP reporter activity,[2]; agonist: LPS (TLR4) 0.1 ug/mL,1.24
same,NF-kB SEAP reporter activity,[2]; [3],1.39
same,NF-kB SEAP reporter activity,[2]; [4],1.02
same,NF-kB SEAP reporter activity,[2]; [5],1.2
CC1=C(C(=O)Nc2cc3cn[nH]c3cc2F)C(c2ccc(C(F)(F)F)cc2)CC(=O)N1 (stereo not drawn),NF-kB SEAP reporter activity,[1]; agonist: Imiquimod (TLR7) […],1.13
same,NF-kB SEAP reporter activity,[1]; agonist: MPLA (TLR4) […],1.01
CCOC(=O)c1ncn2c1CN(C)C(=O)c1cc(F)ccc1-2,NF-kB SEAP reporter activity,[1]; agonist: Imiquimod (TLR7) […],0.874
same,NF-kB SEAP reporter activity,[1]; agonist: MPLA (TLR4) […],0.989
CCOC(=O)c1ncn2c1CN(C)C(=O)c1cc(F)ccc1-2 (library stock concentration (final ~1000-fold dilution): 10 mM),NF-kB SEAP reporter activity,[2]; agonist: LPS (TLR4) 0.1 ug/mL,1.41
same,NF-kB SEAP reporter activity,[2]; [3],0.989
same,NF-kB SEAP reporter activity,[2]; [4],1.02
same,NF-kB SEAP reporter activity,[2]; [5],1.1
O=C(O)c1cc(=O)cc(C(=O)O)o1 (library stock concentration (final ~1000-fold dilution): 10 mM),NF-kB SEAP reporter activity,[2]; agonist: LPS (TLR4) 0.1 ug/mL,1.18 and 1.16
same,NF-kB SEAP reporter activity,[2]; [3],1.01 and 1.12
same,NF-kB SEAP reporter activity,[2]; [4],1.06 and 1.14
same,NF-kB SEAP reporter activity,[2]; [5],0.992 and 1.01
COc1cc(CCC(O)CC(O)CCc2ccc(O)c(OC)c2)ccc1O (stereo not drawn) (library stock concentration (final ~1000-fold dilution): 10 mM),NF-kB SEAP reporter activity,[2]; agonist: LPS (TLR4) 0.1 ug/mL,1.41
same,NF-kB SEAP reporter activity,[2]; [3],1.15
same,NF-kB SEAP reporter activity,[2]; [4],1.08
same,NF-kB SEAP reporter activity,[2]; [5],1.06
COc1cc(CCC(O)CC(O)CCc2ccc(O)c(OC)c2)ccc1O (stereo not drawn),NF-kB SEAP reporter activity,[1]; agonist: Imiquimod (TLR7) […],1.04
same,NF-kB SEAP reporter activity,[1]; agonist: MPLA (TLR4) […],1.05
CN(C)CCOC(C)(c1ccccc1)c1ccccn1.O=C(O)CCC(=O)O (stereo not drawn),NF-kB SEAP reporter activity,[1]; agonist: Imiquimod (TLR7) […],0.903
same,NF-kB SEAP reporter activity,[1]; agonist: MPLA (TLR4) […],1.02
CN(C)CCOC(C)(c1ccccc1)c1ccccn1.O=C(O)CCC(=O)O (stereo not drawn) (library stock concentration (final ~1000-fold dilution): 10 mM),NF-kB SEAP reporter activity,[2]; agonist: LPS (TLR4) 0.1 ug/mL,0.998
same,NF-kB SEAP reporter activity,[2]; [3],0.838
same,NF-kB SEAP reporter activity,[2]; [4],0.951
same,NF-kB SEAP reporter activity,[2]; [5],1.03
Cc1ccccc1OCC(O)CO (stereo not drawn) (library stock concentration (final ~1000-fold dilution): 10 mM),NF-kB SEAP reporter activity,[2]; agonist: LPS (TLR4) 0.1 ug/mL,1.03
same,NF-kB SEAP reporter activity,[2]; [3],0.992
same,NF-kB SEAP reporter activity,[2]; [4],0.999
same,NF-kB SEAP reporter activity,[2]; [5],0.962
Cc1ccccc1OCC(O)CO (stereo not drawn),NF-kB SEAP reporter activity,[1]; agonist: MPLA (TLR4) […],1.05
O=C1CN(/N=C/c2ccc([N+](=O)[O-])o2)C(=O)N1,NF-kB SEAP reporter activity,[1]; agonist: Imiquimod (TLR7) […],0.924
same,NF-kB SEAP reporter activity,[1]; agonist: MPLA (TLR4) […],0.948
O=C1CN(/N=C/c2ccc([N+](=O)[O-])o2)C(=O)N1 (library stock concentration (final ~1000-fold dilution): 10 mM),NF-kB SEAP reporter activity,[2]; agonist: LPS (TLR4) 0.1 ug/mL,1.09
same,NF-kB SEAP reporter activity,[2]; [3],0.855
same,NF-kB SEAP reporter activity,[2]; [4],1.1
same,NF-kB SEAP reporter activity,[2]; [5],1.11
Cl.O=C(c1ccc(OCCN2CCCCC2)cc1)c1c(-c2ccc(O)cc2)sc2cc(O)ccc12,NF-kB SEAP reporter activity,[1]; agonist: Imiquimod (TLR7) […],2.49
same,NF-kB SEAP reporter activity,[1]; agonist: MPLA (TLR4) […],2.15
Cl.O=C(c1ccc(OCCN2CCCCC2)cc1)c1c(-c2ccc(O)cc2)sc2cc(O)ccc12 (library stock concentration (final ~1000-fold dilution): 10 mM),NF-kB SEAP reporter activity,[2]; agonist: LPS (TLR4) 0.1 ug/mL,1.25
same,NF-kB SEAP reporter activity,[2]; [3],0.301
same,NF-kB SEAP reporter activity,[2]; [4],0.86
same,NF-kB SEAP reporter activity,[2]; [5],1.98
CC(C)N1CCN(Cc2cnc(-c3cc(-c4cccc5[nH]ccc45)cc4[nH]ncc34)o2)CC1 (library stock concentration (final ~1000-fold dilution): 10 mM),NF-kB SEAP reporter activity,[2]; agonist: LPS (TLR4) 0.1 ug/mL,4.66
CN1C(=O)C(NC(=O)c2cc(Cc3ccccc3)on2)COc2ccccc21 (stereo not drawn) (library stock concentration (final ~1000-fold dilution): 10 mM),NF-kB SEAP reporter activity,[2]; agonist: LPS (TLR4) 0.1 ug/mL,1.18
same,NF-kB SEAP reporter activity,[2]; [3],0.843
same,NF-kB SEAP reporter activity,[2]; [4],0.992
same,NF-kB SEAP reporter activity,[2]; [5],1.14
CN1C(=O)C(NC(=O)c2cc(Cc3ccccc3)on2)COc2ccccc21 (stereo not drawn),NF-kB SEAP reporter activity,[1]; agonist: Imiquimod (TLR7) […],0.926
same,NF-kB SEAP reporter activity,[1]; agonist: MPLA (TLR4) […],1.06
O=C1OC(=O)C2C3CCC(O3)C12 (stereo not drawn),NF-kB SEAP reporter activity,[1]; agonist: Imiquimod (TLR7) […],1.93
same,NF-kB SEAP reporter activity,[1]; agonist: MPLA (TLR4) […],2.03
O=C1OC(=O)C2C3CCC(O3)C12 (stereo not drawn) (library stock concentration (final ~1000-fold dilution): 10 mM),NF-kB SEAP reporter activity,[2]; agonist: LPS (TLR4) 0.1 ug/mL,3.23
same,NF-kB SEAP reporter activity,[2]; [3],2
same,NF-kB SEAP reporter activity,[2]; [4],1.84
same,NF-kB SEAP reporter activity,[2]; [5],1.76
CCOC(=O)n1ccn(C)c1=S (library stock concentration (final ~1000-fold dilution): 10 mM),NF-kB SEAP reporter activity,[2]; agonist: LPS (TLR4) 0.1 ug/mL,0.918
same,NF-kB SEAP reporter activity,[2]; [3],0.932
same,NF-kB SEAP reporter activity,[2]; [4],0.935
same,NF-kB SEAP reporter activity,[2]; [5],1.05
CCOC(=O)n1ccn(C)c1=S,NF-kB SEAP reporter activity,[1]; agonist: Imiquimod (TLR7) […],0.978
same,NF-kB SEAP reporter activity,[1]; agonist: MPLA (TLR4) […],1.03
Cc1c[nH]c(-c2cnc(NCCNc3ccc(C#N)cn3)nc2-c2ccc(Cl)cc2Cl)n1.Cl (library stock concentration (final ~1000-fold dilution): 10 mM),NF-kB SEAP reporter activity,[2]; agonist: LPS (TLR4) 0.1 ug/mL,2.97
same,NF-kB SEAP reporter activity,[2]; [3],2.78
same,NF-kB SEAP reporter activity,[2]; [4],1.84
same,NF-kB SEAP reporter activity,[2]; [5],3.48
Cc1c[nH]c(-c2cnc(NCCNc3ccc(C#N)cn3)nc2-c2ccc(Cl)cc2Cl)n1.Cl,NF-kB SEAP reporter activity,[1]; agonist: Imiquimod (TLR7) […],2.27
same,NF-kB SEAP reporter activity,[1]; agonist: MPLA (TLR4) […],2.2
CC(C)=CCCC(C)(OC1OC(CO)C(O)C(O)C1O)C1CCC2(C)C1C(O)CC1C3(C)CCC(OC4OC(CO)C(O)C(O)C4OC4OC(CO)C(O)C(O)C4O)C(C)(C)C3CCC12C (stereo not drawn),NF-kB SEAP reporter activity,[1]; agonist: Imiquimod (TLR7) […],1.01
same,NF-kB SEAP reporter activity,[1]; agonist: MPLA (TLR4) […],1.02
CC(C)=CCCC(C)(OC1OC(CO)C(O)C(O)C1O)C1CCC2(C)C1C(O)CC1C3(C)CCC(OC4OC(CO)C(O)C(O)C4OC4OC(CO)C(O)C(O)C4O)C(C)(C)C3CCC12C (stereo not drawn) (library stock concentration (final ~1000-fold dilution): 10 mM),NF-kB SEAP reporter activity,[2]; agonist: LPS (TLR4) 0.1 ug/mL,0.838
same,NF-kB SEAP reporter activity,[2]; [3],1.11
same,NF-kB SEAP reporter activity,[2]; [4],0.899
same,NF-kB SEAP reporter activity,[2]; [5],1.02
